In the supplement of paper PMC12217912:
Some of the results follow. Sequences were assembled here from the parent chain. Values near 0.05 are background.

B1: TEV protease; numbered along this chain (parent)
chain: MGESLFKGPRDYNPISSSICHLTNESDGHTTSLYGIGFGPFIITNKHLFRRNNGTLVVQSLHGVFKVKDTTTLQQHLVDGRDMIIIRMPKDFPPFPQKLKFREPQREERICLVTTNFQTKSMSSMVSDTSCTFPSGDGIFWKHWIQTKDGQCGSPLVSTRDGFIVGIHSASNFTNTNNYFTSVPKNFMELLTNQEAQQWVSGWRLNADSVLWGGHKVFMVKPEEPFQPVKEATQL

Variants of: B1
Experiment: raw area under fraction-flipped curve 0-4 h after induction (AUC4h, not background-subtracted), DNA-recorder readout of cleavage of the substrate (dimensionless); higher = more cleavage of the substrate by the protease variant
Conditions: temperature: 34 °C; time window: 0-4 h after rhamnose induction
Method: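 In vivo DNA recorder in E. coli TOP10(DE3) ΔrhaA at 34 °C. Each TEVp single-site mutant (parent TEVp 0) is paired with a single-site variant of the 7-mer TEVs (canonical ENLYFQ|S). The substrate sits between flexible linkers in a Bxb1-sfGFP-TEVs-SsrA fusion, so cleavage stabilises Bxb1 and speeds flipping of a recombination array, read by NGS. The value is the raw area under the fraction-flipped curve over 0-4 h after rhamnose induction (AUC4h), with ≥20 reads per time point. It is not background-subtracted; inactive controls average about 0.047.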
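Also: Bxb1 expression induced with 0.2% (w/v) L-rhamnose at OD600 near 0.5, cultures sampled hourly, flipped fraction per protease–substrate barcode pair counted by paired-end Illumina sequencing.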

Variant	area with substrate ENLYFQD	area with substrate ENLYFQG	area with substrate ENLYFQK	area with substrate ENLYFQM	area with substrate ENLYFQR	area with substrate ENLYFQS	area with substrate ENLYFQT	area with substrate ENLYFQW	area with substrate ENLYFQY	area with substrate ENLYFQE
R51T	0.0723	0.138	0.0584	0.118	0.0577	0.134	0.0606	0.0815	0.0756	–
L205C	0.0662	0.0707	–	–	0.0788	0.0894	–	0.061	0.0698	0.064
S121N	0.0639	–	0.0616	–	–	0.109	–	0.0666	0.079	–
I86M	–	0.112	0.0478	0.103	0.0532	0.101	–	–	–	–
F6C	–	–	0.069	–	–	0.0874	0.068	–	–	0.0621
H62G	0.0658	0.0808	0.0603	0.0966	0.0585	0.101	–	0.0709	–	–
D79C	–	0.0983	0.0486	–	0.0678	0.102	–	–	–	–
T129A	0.0705	0.0911	0.0704	0.0887	0.0309	0.092	0.066	0.0753	–	–
K7T	–	0.0824	–	–	0.0632	0.0837	–	–	–	–
K7R	0.0593	0.108	–	0.103	0.0527	0.106	0.064	–	–	–
T174M	–	–	0.0663	0.0878	–	0.0988	–	–	0.0567	0.0543
F92S	–	0.0734	–	0.0891	0.0547	0.0907	–	0.0662	–	–
V217M	0.0597	–	–	0.0813	0.05	0.0956	0.057	0.0579	–	–
F187K	0.0521	0.0424	0.0484	–	0.0449	0.0521	0.0538	–	0.0342	–
H215Y	–	0.0665	0.0617	0.0622	–	0.0775	0.0552	0.0593	–	–
H215T	–	–	0.0668	0.0727	0.0861	0.0652	–	–	0.0453	–
R87M	–	–	0.0678	–	–	0.114	–	0.0684	–	–
G138I	0.0712	–	–	0.114	–	0.0875	0.0512	–	–	–
G138E	–	0.138	–	0.0847	0.0562	0.101	0.0415	–	0.0593	–

Same assay, conditions: temperature: 34 °C; time window: 0-4 h after rhamnose induction

Variant	area with substrate ENLYFQH	area with substrate ENLYFQL	area with substrate ENLYFQV	area with substrate ENLYFQI	area with substrate ENLYFQN	area with substrate ENLYFQP	area with substrate ENLYFQQ	area with substrate ENLYFQC	area with substrate ENLYFQF
L205C	0.0832	0.0536	0.052	–	–	–	–	–	–
S121N	–	0.0528	–	0.0036	0.0918	–	–	–	–
I86M	0.13	0.046	0.0693	–	0.0765	–	–	–	–
F6C	–	–	–	0.0655	–	–	–	–	–
H62G	–	0.06	–	0.0474	0.0773	0.121	–	–	–
D79C	0.0697	–	0.0577	0.0576	0.066	–	–	–	–
T129A	–	–	–	0.0293	0.0757	0.072	0.072	–	–
K7T	–	–	–	–	0.0763	–	–	–	–
K7R	0.073	0.0752	–	0.0676	–	–	–	–	–
T174M	–	–	0.0661	0.0028	0.0773	–	–	–	–
F92S	–	0.0613	–	0.0612	0.0799	0.0735	–	–	–
V217M	–	0.0624	0.0735	0.0679	0.0666	–	–	0.124	0.0486
F187K	0.069	–	0.0633	–	0.0531	–	–	–	0.0294
H215Y	–	0.0467	–	–	–	–	0.0533	0.0964	0.0298
H215T	–	0.0692	–	0.057	–	–	–	–	0.118
R87M	–	0.0667	–	0.0457	0.0829	–	–	–	0.0857
G138E	–	–	–	0.0542	–	0.0506	–	–	–
